The record followed here is PMC9574860, “Chemical Toolkit for PARK7: Potent, Selective, and High-Throughput” (Journal of Medicinal Chemistry, 2022).

The whole screen tested about 7,900 compounds, of which about 400 (5.1%) showed an effect of 50% or more. This is one part of the list.

Sequence of Parkinson's disease protein 7 (PARK7/DJ1) (Q99497 whole entry, looked up, the tested form may be a part): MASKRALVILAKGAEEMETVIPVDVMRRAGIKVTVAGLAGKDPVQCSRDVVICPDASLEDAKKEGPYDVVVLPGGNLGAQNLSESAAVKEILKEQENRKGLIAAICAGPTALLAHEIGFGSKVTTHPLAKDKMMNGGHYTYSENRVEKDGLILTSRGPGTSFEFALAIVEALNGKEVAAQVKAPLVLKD

This assay deals with Parkinson's disease protein 7 (PARK7/DJ1) (human, UniProt Q99497). Nature of the assay: primary screen, percent inhibition; read as competition with a fluorescent probe by fluorescence polarization; higher = more effect of the substance. Particulars: 100 µM. The gist of the method:
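Fluorescence-polarization probe displacement (JYQ-107, 20 nM final, 2 h) after 2 h preincubation of PARK7 (0.2 μM final) with each fragment at 100 μM final. Read-out ex/em 480/520 nm; remaining activity derived from FP signal loss relative to reference controls.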
With `CC(C)CN(C(=O)CCl)C1CC1`, the Inhibition % is given as 6.01%.

`CN(C)CCN(C)c1ccc(B2OC(C)(C)C(C)(C)O2)cc1`: the Inhibition % is reported as 3.58%.

Regarding `C=CC(=O)N1CCCCc2c(OC)cccc21`, the Inhibition % came out at 6.65%.

As for `CN1CCN(c2oc(-c3ccccc3)nc2C#N)CC1`, the Inhibition % is -1.53%.

In the case of `O=S(=O)(F)c1ccc(Nc2cnn(CC(F)(F)F)c2)nc1`, the Inhibition % turned out to be 21.1%.

`Cc1ccc(C(C)C)cc1S(=O)(=O)n1cccn1`: the Inhibition % is on record as 4.67%.

As for `CCC1(CNc2ccc(S(=O)(=O)F)cn2)CC1`, the Inhibition % came out at 0.0936%.

For `O=C1OCCC1N1CCC(C(=O)N2CCCCC2)CC1` (stereo not shown), the Inhibition % worked out at 3.78%.

As to `CC1(C)OB(c2cnn(-c3ccc(Cl)cc3Cl)c2)OC1(C)C`, the Inhibition % was 3.3%.

For the compound `O=C1OCCC1Sc1nccn1-c1ccccc1` (stereo not shown), the Inhibition % is on record as 0.695%.

On to `C=CC(=O)N1CCC(Cc2ccncc2)C1` (stereo not shown), for which the Inhibition % amounted to 6.08%.

In the case of `N#CC=CN1CCc2ccccc2C1`, the Inhibition % was determined as 26.8%.

For the compound `O=C(CCl)NC(=O)NCc1ccccc1`, the Inhibition % was 6.39%.

For the compound `Cl.NCC1OB(O)c2ccccc21` (stereo not shown), the Inhibition % amounted to 3.67%.

For `CC(C#N)NC(=O)CCn1c(S)nc2ccccc2c1=O` (stereo not shown), the Inhibition % was determined as 10.2%.

For the compound `C=CC(=O)N1CCC2(C1)Oc1ccccc1O2`, the Inhibition % is 6.75%.

Consider `CCOC(=O)[C@@H]1CN(C(=O)OC(C)(C)C)C[C@H]1B1OC(C)(C)C(C)(C)O1` (racemic), for which the Inhibition % came to 3.39%.

As for `CCOC(=O)c1c(NC(=O)CCl)sc2c1CCC2`, the Inhibition % was 5.34%.

As for `CC1(C)OB(c2cc3ccoc3cc2F)OC1(C)C`, the Inhibition % is listed as 9.27%.

Turning to `Cn1cnc2cc(B3OC(C)(C)C(C)(C)O3)ccc21`, the Inhibition % was 8.19%.

On to `C=CC(=O)N(C)C1CCN(CC)CC1C` (stereo not shown), for which the Inhibition % was 28.7%.

Turning to `C=CC(=O)NCC1CCOC(C)(C)C1` (stereo not shown), the Inhibition % was determined as 11.3%.

Regarding `Cc1nn(-c2ccccc2)c(C)c1NC(=O)CCCl`, the Inhibition % was 4.56%.

Regarding `C=CC(=O)N[C@@H]1CC=CC[C@H]1C` (racemic), the Inhibition % is 12.5%.

Consider `C=CC(=O)Nc1ccccc1N1CC2CCC1C2` (stereo not shown), for which the Inhibition % is 14.2%.

For the compound `CC(c1ccccc1)C1CO1` (stereo not shown), the Inhibition % was -0.54%.

In the case of `N#Cc1ncn(Cc2ccc(C(=O)N3CCCC3)cc2)n1`, the Inhibition % is given as 4.22%.

As for `Cc1ccc(Cl)cc1NC(=O)CN1CCSC1=O`, the Inhibition % is reported as -2.92%.

On to `C=CC(=O)N1C2CCCC1COC2`, for which the Inhibition % is 9.14%.

For `O=C1OCCC1Sc1ncccc1Cl` (stereo not shown), the Inhibition % is recorded as 7.32%.

With `O=C(CCl)Nc1ccc(Oc2ccccc2)cc1`, the Inhibition % worked out at 84.2%.

`O=C(CCl)N1CCN(C(=O)C2CC2)CC1`: the Inhibition % is on record as 56.1%.

`C=CC(=O)N1CCC1(C)C1CCCCC1` (stereo not shown): the Inhibition % is 6.7%.

As for `CC(N)c1ccc(B2OC(C)(C)C(C)(C)O2)cc1.Cl` (stereo not shown), the Inhibition % was 4.31%.

Turning to `CNC(=O)C(C#N)=Cc1cc2cc(C)c(C)cc2o1`, the Inhibition % is 11.4%.

In the case of `N#CC1(CC2CO2)CCOCC1` (stereo not shown), the Inhibition % is on record as 11.8%.

Turning to `O=c1onc(-c2ccccn2)n1Cc1ccccc1`, the Inhibition % is 5.11%.

Consider `C=CC(=O)NC1CCN(C(=O)CC)CC1C` (stereo not shown), for which the Inhibition % worked out at 3.82%.

Take `C=CC(=O)NCCc1noc(-c2ccccn2)n1`: the Inhibition % is given as 11%.

Regarding `N#CC(=Cc1ccccc1OCC(F)(F)F)C(=O)O`, the Inhibition % is 20.2%.

On to `COc1cccc(CS)c1`, for which the Inhibition % was found to be 15.4%.

On to `Cc1cc(B2OC(C)(C)C(C)(C)O2)n(C2CCCCO2)n1` (stereo not shown), for which the Inhibition % is reported as 4.86%.

For the compound `C=CC(=O)Nc1nc2ncccn2n1`, the Inhibition % is 6.78%.

In the case of `C=CC(=O)N1CCC(n2cc(Br)cn2)CC1`, the Inhibition % was 10.1%.

Turning to `C=CC(=O)N1CC(=O)NCC1(C)C`, the Inhibition % is listed as 11.6%.

As for `C=CC(=O)NC1CCCC1C(C)(C)C` (stereo not shown), the Inhibition % is 6.75%.

Regarding `Cc1nn(C)c(Cl)c1C=CC(=O)N1CC(C)NC(C)C1` (stereo not shown), the Inhibition % was determined as 9.72%.

On to `N#Cc1cncc(NC2C3CC4CC2CC(F)(C4)C3)n1` (stereo not shown), for which the Inhibition % is 8%.

As to `C=CC(=O)NC(CC)C(=O)N1CCOCC1` (stereo not shown), the Inhibition % turned out to be 17.1%.

In the case of `N#Cc1ncn(CCOc2cccc(Cl)c2)n1`, the Inhibition % is on record as 2.66%.

Regarding `OB(O)c1cc(F)ccc1OCCc1ccccc1`, the Inhibition % came out at 3.95%.

Regarding `C=CC(=O)NCc1ccc2c(c1)CCO2`, the Inhibition % amounted to 9.41%.

With `O=C(CCl)NC1CCCCNC1=O` (stereo not shown), the Inhibition % is reported as 13.7%.

Turning to `C=CC(=O)NC1(COC)CCOC1` (stereo not shown), the Inhibition % is reported as 4.59%.

On to `CC1CCCN(C(=O)C=Cc2cnc3ccccc3n2)C1` (stereo not shown), for which the Inhibition % is 9.42%.

As for `O=C1COc2ccccc2N1CCCl`, the Inhibition % was determined as 4.53%.

Consider `Cc1ccc(Cl)cc1B(O)O`, for which the Inhibition % is given as 8.59%.

`C=CC(=O)NC[C@@H]1CC(=O)N(C)[C@H]1c1c(C)nn(C)c1C`: the Inhibition % was determined as 8.72%.

Regarding `O=C(O)C=CC(=O)N1CCCc2ccccc21`, the Inhibition % turned out to be 14.1%.

For `CC1CN(C)CCN1C(=O)C=Cc1nccs1` (stereo not shown), the Inhibition % turned out to be 15.8%.

`C=CC(=O)NCc1cnc(C)s1`: the Inhibition % was determined as 6.09%.

As to `O=C(CCl)N(Cc1ccco1)CC(F)(F)F`, the Inhibition % was 11.9%.

For the compound `Cc1csc(NC(=O)CCN2C(=O)CCC2=O)n1`, the Inhibition % was found to be 5.08%.

Regarding `O=C(CCl)NC1CCOc2ccccc21` (stereo not shown), the Inhibition % came to 15.1%.

With `O=C1OCCC1N1CCc2sccc2C1` (stereo not shown), the Inhibition % is listed as 4.89%.

With `CCc1oc2ccccc2c1C=C(C#N)C(N)=O`, the Inhibition % was determined as 3.72%.

As to `O=c1[nH]c(-c2ccc(F)c(Cl)c2)no1`, the Inhibition % is 12.5%.

For the compound `CCc1ccc(OC)c(S(=O)(=O)n2ccnc2)c1`, the Inhibition % was 1.17%.

Take `CC(C)(C)OC(=O)N1CCN(Cc2ccc(B3OC(C)(C)C(C)(C)O3)cc2)CC1`: the Inhibition % turned out to be 2.85%.

For `CNC(=O)c1cncc(C=CC(=O)N2CCNCC2C)c1.Cl` (stereo not shown), the Inhibition % is reported as 5.63%.

Take `C=CC(=O)NC[C@]12OCCC[C@H]1C2(F)F` (racemic): the Inhibition % turned out to be 10.3%.

On to `Cc1cc(C#N)nc(=O)[nH]1`, for which the Inhibition % is reported as -14.8%.

Consider `C=CC(=O)N1CCCC(C2CCCCO2)C1` (stereo not shown), for which the Inhibition % amounted to 4.84%.

As to `O=c1[nH]c(-c2ccccn2)no1`, the Inhibition % is 28%.

For the compound `CSc1nccnc1C#N`, the Inhibition % was 1.38%.

Consider `COc1ccccc1C(C)N(C)C(=O)CCl` (stereo not shown), for which the Inhibition % was found to be 31.5%.

As for `Cl.Cn1nccc1CCCl`, the Inhibition % worked out at 6.9%.

Consider `N#Cc1nnc2ccccc2c1N`, for which the Inhibition % amounted to 1.29%.

With `O=C(Oc1ccnc2cc(Cl)ccc12)N1CCCC1`, the Inhibition % is 5.44%.

On to `Cc1noc(C)c1S(=O)(=O)Oc1cccc(F)c1C#N`, for which the Inhibition % is given as 14.8%.

Turning to `CC1(C)OB(c2cc3nccnc3cc2Cl)OC1(C)C`, the Inhibition % is 5.05%.

Take `CS(=O)(=O)N(c1ccc(F)cc1)C1C=CS(=O)(=O)C1` (stereo not shown): the Inhibition % was 9.84%.

With `O=C(C=Cc1cnn(-c2ccccc2)c1)N1CCCC1`, the Inhibition % came out at 1.16%.

Consider `CNc1cnc(C#N)cn1`, for which the Inhibition % is 3.91%.

On to `CC(OS(C)(=O)=O)C(C)c1ccc2ccccc2n1.Cl` (stereo not shown), for which the Inhibition % is recorded as 24.3%.

Consider `O=C1c2ccccc2S(=O)(=O)N1CCS(=O)(=O)F`, for which the Inhibition % is 32.5%.

As for `O=S(=O)(F)c1ccc(Cn2cnc(Br)n2)cc1`, the Inhibition % is on record as 12.6%.

As to `FC(F)(F)C1(c2ccccc2)CO1` (stereo not shown), the Inhibition % is 8.56%.

As for `N#Cc1cn(CC(=O)N2CCCC3CCCCC32)nn1` (stereo not shown), the Inhibition % is reported as 6.52%.

Consider `C=CC(=O)N1[C@@H]2CC[C@H]1CN(C)C(=O)C2` (racemic), for which the Inhibition % is given as 16.7%.

As to `O=C(CCl)Nc1ccc(Cl)c(F)c1`, the Inhibition % worked out at 36.8%.

On to `C#CC(=O)c1ccc(Cl)cc1`, for which the Inhibition % was found to be 2.9%.

`O=S(=O)(c1cccc(F)c1)N1CCCCC1C1OCCO1` (stereo not shown): the Inhibition % stood at 3.08%.

Regarding `CC1(C)CC(C)(NCc2cccc(F)c2)C(=O)O1` (stereo not shown), the Inhibition % is 14.4%.

`COc1cc(S(=O)(=O)n2cccn2)ccc1Cl`: the Inhibition % stood at 8%.

On to `C=CC(=O)NCc1nc(-c2ccc(Cl)cc2)c[nH]1`, for which the Inhibition % turned out to be 10.1%.

For the compound `CS(=O)(=O)OCC1CC2CCC1O2` (stereo not shown), the Inhibition % was determined as 10.8%.

In the case of `CCn1cc(B2OC(C)(C)C(C)(C)O2)c(C2CC2)n1`, the Inhibition % turned out to be 7.62%.

Take `O=S(=O)(Oc1cn2ccccc2n1)C(F)(F)F`: the Inhibition % turned out to be 14.9%.

Take `Cc1cc(S(=O)(=O)n2ccnc2)c(C)cc1Cl`: the Inhibition % came to 8.92%.

Take `COc1ccccc1B1OC(C)(C)C(C)(C)O1`: the Inhibition % is recorded as 6.7%.

Turning to `C=CC(=O)NC(C)C1CC1(F)F` (stereo not shown), the Inhibition % is recorded as 4.36%.

Regarding `N#Cc1cc(C(N)=O)c[nH]1`, the Inhibition % was found to be 9.97%.

Regarding `CCC1SC(=C(C#N)C(N)=O)N(c2ccc(C)cc2)C1=O` (stereo not shown), the Inhibition % was 2.29%.

In the case of `Cc1cccc2[nH]cc(C(=O)CCl)c12`, the Inhibition % turned out to be 23.7%.

Take `O=c1c2ccsc2ncn1CCS(=O)(=O)F`: the Inhibition % amounted to 19.7%.

Consider `O=C(NCC1CCCC1)n1ccnc1`, for which the Inhibition % worked out at 40.7%.

Regarding `O=S(=O)(C=Cc1ccccc1)N1CCOc2ncccc21`, the Inhibition % stood at 38.6%.

On to `COc1ccc(NC(=O)CCl)c(OC)c1`, for which the Inhibition % was 6.58%.

In the case of `Cc1ccc(C(C)NC(=O)Cn2cnc(C#N)n2)cc1C` (stereo not shown), the Inhibition % was 3.5%.

With `Cn1nc(C(=O)O)cc1C#N`, the Inhibition % is reported as 1.8%.

In the case of `O=C(O)Cn1c(S)nc2ccccc2c1=O`, the Inhibition % is given as -3.22%.

For the compound `COc1ccc(C2CCCCCN2C(=O)CCl)cc1` (stereo not shown), the Inhibition % was 8.03%.

In the case of `C=CC(=O)N1CCC(Cn2cncn2)CC1`, the Inhibition % was 11.9%.

Take `CC1(C)CN(c2ccc(C#N)nc2)CC1O` (stereo not shown): the Inhibition % stood at 5.17%.

For the compound `CCN(CC)c1ncc(B2OC(C)(C)C(C)(C)O2)cn1`, the Inhibition % was -0.275%.

`Cn1cc(C=C2N=C(c3ccc(F)cc3F)OC2=O)cn1`: the Inhibition % was determined as 4.3%.

Turning to `N#Cc1ccc(NCCc2ccc(O)cc2)cn1`, the Inhibition % is on record as 7.59%.

`Cc1nc(-c2ccco2)nc(S)c1C(=O)O`: the Inhibition % is 1.46%.

`C=CC(=O)N(C)Cc1cc(Cl)cn1C`: the Inhibition % is reported as 14.2%.

Take `O=C(c1ccccc1)N1CCC(CCl)C1` (stereo not shown): the Inhibition % is given as 2.86%.

Consider `NS(=O)(=O)c1cccc(S(=O)(=O)F)c1`, for which the Inhibition % is listed as 94.3%.

On to `Cc1c(Cl)cccc1NC(=O)CCl`, for which the Inhibition % turned out to be 11.8%.

As for `C=CC(=O)N1CCC(c2nc(C)no2)CC1`, the Inhibition % is given as 6.69%.
